{"source": "PubChem BioAssay AID624418", "about": "(National Center for Advancing Translational Sciences (NCATS), 2012)", "note": "In all, about 410,000 compounds went through this assay and about 530 (0.13%) were called active. The inconclusive results got no clear call from the source; some entries with a clear call stand among them for comparison. Calls come from the whole dose curve; as a rule, active = well fitted inhibition curve with a large enough effect; inconclusive = small, poorly fitted or top-dose-only effect, or another doubt; inactive = no such curve, though single readings can be large or run the other way. Where the call is inconclusive, the potency comes from a doubtful curve fit. Potency is the fitted concentration of half-maximal effect."}
{"test": "qHTS of GLP-1 Receptor Inverse Agonists: Cytotox Screen", "details": "HEK293 cAMP-luciferase reporter cells, luminescence, 24 h; series mostly up to 38.3 µM", "in_short": "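Seeding density was 200 cells/uL; after overnight-length (12 h) culture, 23 nL compounds went on for 24 h at 37 °C. Readout used a luciferase detection reagent, luminescence taken after 12 min at room temperature.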"}
{"smiles": "NC(=S)NN=Cc1nccc2c(C(F)(F)C(F)(F)C(F)(F)F)cccc12", "Potency": "inconclusive: 0.316 µM [inhibitor, full curve, poor fit]"}
{"smiles": "CSc1ccc(C(=O)C2CCCN(Cc3cnc(SC)nc3)C2)cc1", "note": "(configuration not stated)", "Potency": "inactive"}
{"smiles": "Cc1ccc(Cn2ncc(Cl)c(Cl)c2=O)cc1", "Potency": "inconclusive: 12.6 µM [inhibitor, single point]"}
{"smiles": "COc1ccccc1N1C(=O)NC(=O)C2(Cc3cc(C)ccc3N(C)C2)C1=O", "note": "(configuration not stated)", "Potency": "inactive"}
{"smiles": "CCOC(=O)[C@]12Cc3cc(C)ccc3[C@H]1N(C1CCCCC1)C(=O)c1ccccc12", "Potency": "inconclusive: 10 µM [inhibitor, partial curve, poor fit]"}
{"smiles": "CCOC(=O)c1ccc(N2C(=O)c3n[nH]c(-c4cccs4)c3C2c2ccc(Cl)cc2Cl)cc1", "note": "(configuration not stated)", "Potency": "inconclusive: 22.4 µM [inhibitor, single point]"}
{"smiles": "COc1ccc(CC(N)c2csc(Nc3ncccn3)n2)cc1", "note": "(configuration not stated)", "Potency": "inconclusive: 11.2 µM [inhibitor, partial curve, poor fit]"}
{"smiles": "Cc1c(C(=O)NN)[nH]c2ccc([N+](=O)[O-])cc12", "Potency": "inconclusive: 28.2 µM [inhibitor, single point]"}
{"smiles": "COc1ccccc1CCNC1C2CC3CC(C2)CC1C3", "note": "(configuration not stated)", "Potency": "inconclusive: 28.2 µM [inhibitor, single point]"}
{"smiles": "Cc1ccc(-c2cc(-c3ccc(C)cc3)[n+](C)o2)cc1", "Potency": "inactive"}
{"smiles": "CCc1ccc(OCC(=O)NC(NC(=S)Nc2ccccc2C)C(Cl)(Cl)Cl)cc1", "note": "(configuration not stated)", "Potency": "inconclusive: 28.2 µM [inhibitor, single point]"}
{"smiles": "Fc1ccc(F)c(C2=NNC(=Nc3ccccc3F)SC2)c1", "Potency": "inconclusive: 28.2 µM [inhibitor, single point]"}
{"smiles": "O=C(Cc1ccccc1)NCC(=O)N/N=C/c1ccc([N+](=O)[O-])s1", "Potency": "inconclusive: 10 µM [inhibitor, partial curve]"}
{"smiles": "CCOC(=O)c1sc(NC(=O)Nc2ccccc2)cc1C", "Potency": "inconclusive: 12.6 µM [inhibitor, single point]"}
{"smiles": "CSCCC(c1nnnn1-c1c(C)cccc1C)N1CCC2(CC1)C(=O)NCN2c1ccccc1", "note": "(configuration not stated)", "Potency": "inconclusive: 28.2 µM [inhibitor, single point]"}
{"smiles": "COc1ccc(N=Nc2c(O)[nH]c(=S)[nH]c2=O)cc1", "Potency": "inconclusive: 28.2 µM [inhibitor, single point]"}
{"smiles": "CCN1/C(=C/C=C/C2=[N+](CC)c3ccccc3C2(C)C)C(C)(C)c2ccccc21", "Potency": "inconclusive: 2.24 µM [inhibitor, partial curve, poor fit]"}
{"smiles": "O=C1NC(=S)N(c2ccccc2)C(=O)/C1=C/c1ccco1", "Potency": "inactive"}
{"smiles": "O=c1c2ccccc2nc(/C=C/c2ccccc2)n1-c1ccc(O)cc1", "Potency": "inactive"}
{"smiles": "COc1ccc(/C=C/C2=CCN(C)CC2)cc1", "Potency": "inactive"}
{"smiles": "Cn1c2ccccc2c2c(C(=O)N3CCC4(CC3)OCCO4)cn(C3CCCC3)c(=O)c21", "Potency": "inconclusive: 12.6 µM [inhibitor, partial curve]"}
{"smiles": "COc1cccc(N(C(=O)CCl)C(C(=O)NCCc2ccccc2)c2cccs2)c1", "note": "(configuration not stated)", "Potency": "inconclusive: 10 µM [inhibitor, partial curve, poor fit]"}
{"smiles": "COc1ccc(C2=CC(c3ccc4c(c3)OCO4)c3c(c4ccccc4oc3=O)O2)cc1OC", "note": "(configuration not stated)", "Potency": "inconclusive: 1.41 µM [inhibitor, full curve]"}
{"smiles": "CCOc1ccc(N(CC)S(=O)(=O)c2ccc3c(c2)oc(=O)n3C)cc1", "Potency": "inconclusive: 7.94 µM [inhibitor, partial curve]"}
{"smiles": "CC1CCC(NC(=O)CN2CCN(S(=O)(=O)c3ccc(Br)s3)CC2)CC1", "note": "(configuration not stated)", "Potency": "inconclusive: 11.2 µM [inhibitor, single point]"}
{"smiles": "CCCCn1c(SCC(=O)Nc2cc(C(F)(F)F)cc(C(F)(F)F)c2)nnc1C(CC)N(C)C", "note": "(configuration not stated)", "Potency": "inconclusive: 11.2 µM [inhibitor, single point]"}
{"smiles": "CCNC(=S)Nc1ccc(Oc2ccccc2)cc1", "Potency": "inconclusive: 28.2 µM [inhibitor, single point]"}
{"smiles": "O=C(c1ccc2c3c(cccc13)CC2)C1CCCN(CC2CC2)C1", "note": "(configuration not stated)", "Potency": "inconclusive: 14.1 µM [inhibitor, single point]"}
{"smiles": "NC(=O)c1cn(C2OC(CO)C(O)C2O)c2ncnc(N)c12", "note": "(configuration not stated)", "Potency": "inconclusive: 0.316 µM [inhibitor, full curve, poor fit]"}
{"smiles": "C=CCn1c(O)c(C2=c3ccccc3=NC2=O)sc1=Nc1ccc(O)cc1", "Potency": "inconclusive: 11.2 µM [inhibitor, partial curve, poor fit]"}
{"smiles": "COC(=O)c1c(NC(=O)/C=C/C(=O)O)sc(C)c1-c1ccc(C(C)C)cc1", "Potency": "inconclusive: 14.1 µM [inhibitor, single point]"}
{"smiles": "CCn1ccnc1CN1CCCC(C(=O)c2cc(Cl)ccc2OC)C1", "note": "(configuration not stated)", "Potency": "inconclusive: 12.6 µM [inhibitor, single point]"}
{"smiles": "O=c1[nH]c2ccccc2n1C1CCN(C(c2cccc3ccccc23)c2nnnn2Cc2ccccc2)CC1", "note": "(configuration not stated)", "Potency": "inconclusive: 8.91 µM [inhibitor, partial curve]"}
{"smiles": "O=C(COc1nsnc1N1CCOCC1)N/N=C/c1ccccc1O", "Potency": "inconclusive: 10 µM [inhibitor, partial curve, poor fit]"}
{"smiles": "CC(C)(C)c1ccc(CN2C(=O)CN=C(c3ccccc3)c3ccccc32)cc1", "Potency": "inconclusive: 8.91 µM [inhibitor, partial curve, poor fit]"}
{"smiles": "CN1CCC2(CC1)c1ccccc1-c1ccccc12", "Potency": "inconclusive: 22.4 µM [inhibitor, single point]"}
{"smiles": "Fc1ccc(C(OCCN2CCCC2)c2ccc(Br)cc2)cc1", "note": "(configuration not stated)", "Potency": "inconclusive: 28.2 µM [inhibitor, single point]"}
{"smiles": "Nc1c2c(nc3sc4c(c13)CCCC4)CCCC2", "Potency": "inconclusive: 11.2 µM [inhibitor, single point]"}
{"smiles": "CN1CN(c2ccccc2)C2(CCN(CCCSc3ccccc3NC(=O)/C=C/c3ccccc3)CC2)C1=O", "Potency": "inconclusive: 17.8 µM [inhibitor, single point]"}
{"smiles": "O=C(NN=Cc1ccc(N(CCCl)CCCl)cc1)c1cccc([N+](=O)[O-])c1", "Potency": "inconclusive: 10 µM [inhibitor, partial curve, poor fit]"}
{"smiles": "Cc1ccc(-n2ncc(C(=O)NCCN3CCC(Cc4ccccc4)CC3)c2C2CCN(C(=O)OC(C)(C)C)CC2)cc1", "Potency": "inconclusive: 11.2 µM [inhibitor, single point]"}
{"smiles": "CC(C)Cn1c(N)c(C(=O)NCCN2CCOCC2)c2nc3ccccc3nc21", "Potency": "inactive"}
{"smiles": "O=C(CNC(=O)c1ccc(Cl)cc1)Nc1ccc(Br)cc1C(=O)c1ccccc1", "Potency": "inconclusive: 10 µM [inhibitor, single point]"}
{"smiles": "Cc1cc2ccccn2c1C(=O)c1ccc(NN)c([N+](=O)[O-])c1", "Potency": "inconclusive: 11.2 µM [inhibitor, partial curve]"}
{"smiles": "CSc1ccccc1C(=O)C1CCCN(Cc2cccc(C)n2)C1", "note": "(configuration not stated)", "Potency": "inconclusive: 8.91 µM [inhibitor, partial curve, poor fit]"}
{"smiles": "O=c1[nH]c2ccccc2n1C1CCN(Cc2ccc(-c3[nH]c4cc5ncnc5cc4nc3-c3ccccc3)cc2)CC1", "Potency": "inactive"}
{"smiles": "CCN(CC)CCNC(=O)c1cc2c(-c3ccc(Cl)cc3)nn(C)c2s1", "Potency": "inconclusive: 20 µM [inhibitor, single point]"}
{"smiles": "Fc1ccc(CCNCc2ccc(Cl)c(Cl)c2)cc1", "Potency": "inactive"}
{"smiles": "CCCCOP(=O)(c1ccc(N(C)C)cc1)C(Nc1ccccc1)c1ccccc1", "note": "(configuration not stated)", "Potency": "inconclusive: 15.8 µM [inhibitor, single point]"}
{"smiles": "CCOC(=O)CS(=O)(=O)c1nc(-c2ccc(F)cc2)cc(C(F)(F)F)n1", "Potency": "inconclusive: 10 µM [inhibitor, partial curve, poor fit]"}
{"smiles": "CN1CCN(c2ccc([N+](=O)[O-])c(NCC3CCCO3)c2)CC1", "note": "(configuration not stated)", "Potency": "inconclusive: 3.55 µM [inhibitor, partial curve, poor fit]"}
{"smiles": "CNC(C)Cc1ccccc1Sc1ccc(O)cc1", "note": "(configuration not stated)", "Potency": "inconclusive: 11.2 µM [inhibitor, single point]"}
{"smiles": "O=c1[nH]c2ccccc2n1C1CCN(C(c2cccc3ccccc23)c2nnnn2-c2ccc3c(c2)OCCO3)CC1", "note": "(configuration not stated)", "Potency": "inconclusive: 7.08 µM [inhibitor, partial curve, poor fit]"}
{"smiles": "Cc1cc(-c2csc3nc[nH]c(=S)c23)cc(C)c1C", "Potency": "inconclusive: 28.2 µM [inhibitor, single point]"}
{"smiles": "Cc1ccc(C(=O)N/N=C/c2ccc(-c3cccc(Cl)c3)o2)cn1", "Potency": "inconclusive: 10 µM [inhibitor, partial curve]"}
{"smiles": "COc1cccc(Cn2c(-c3cccs3)noc2=O)c1", "Potency": "inconclusive: 28.2 µM [inhibitor, single point]"}
{"smiles": "O=C(NC1CCCc2ccccc21)c1ccccc1OC(F)F", "note": "(configuration not stated)", "Potency": "inconclusive: 28.2 µM [inhibitor, single point]"}
{"smiles": "O=C1/C(=C/c2ccccc2)C[C@@]2(O)[C@H]3Cc4ccc(O)c5c4[C@@]2(CCN3CC2CC2)C1O5", "note": "(some centres not stated)", "Potency": "inconclusive: 7.94 µM [inhibitor, partial curve, poor fit]"}
{"smiles": "CC(C)c1ccc(C(=O)CC2(O)C(=O)N(CCc3ccccc3)c3ccc(Cl)cc32)cc1", "note": "(configuration not stated)", "Potency": "inconclusive: 11.2 µM [inhibitor, single point]"}
{"smiles": "O=C(CCN1CCCCC1)Nc1ccc(Br)cc1C(=O)c1ccccc1", "Potency": "inactive"}
{"smiles": "CN1C(=O)NC(=O)/C(=C/c2ccc([N+](=O)[O-])o2)C1=O", "Potency": "inconclusive: 28.2 µM [inhibitor, single point]"}
{"smiles": "CCCCC1(CCCC)C(=O)NC(=Nc2cccc(C)c2)NC1=O", "Potency": "inconclusive: 11.2 µM [inhibitor, single point]"}
